Experimental findings from PMC12820563, “FoxP3 forms a head-to-head dimer in vivo and stabilizes its multimerization on adjacent microsatellites” are described below.

The other results are listed elsewhere or left out.

This assay concerns the target T1, MBP-FoxP1dN (Mus musculus, UniProt P58462 326-579).
T1 sequence: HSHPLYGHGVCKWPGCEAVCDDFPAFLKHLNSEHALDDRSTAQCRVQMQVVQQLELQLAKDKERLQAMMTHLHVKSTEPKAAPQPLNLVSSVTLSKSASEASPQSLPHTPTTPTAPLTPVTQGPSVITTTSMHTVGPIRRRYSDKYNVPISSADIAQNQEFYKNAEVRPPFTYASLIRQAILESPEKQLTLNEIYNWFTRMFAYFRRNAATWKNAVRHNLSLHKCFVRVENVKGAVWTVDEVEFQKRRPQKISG
Briefly: PD-seq (MBP pull-down with sequencing); 20 mM Tris-HCl pH 7.5, 100 mM NaCl, 1.5 mM MgCl2, 0.4 uM protein, 0.1 uM dsDNA library, 30 min, room temperature, amylose pull-down; high values mean tight binding. Conditions: protein: recombinant; tags: His6-MBP; chain copies: 2; dsDNA, one strand shown. The gist of the method: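 Binding is given as reads-per-million enrichment, pull-down over input, with replicates pooled. The bait was an N-terminus-lacking mouse FoxP3 or FoxP1 fragment with a His6-MBP tag, expressed in E. coli and used at 0.4 µM with 0.1 µM Klenow-filled degenerate double-stranded DNA library for 30 min at room temperature in Tris pH 7.5 buffer with NaCl and MgCl2. Amylose resin pull-down with three washes was followed by proteinase K release, PCR barcoding and Illumina sequencing.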
On to “GATGATTGTTCTCCCAGCTGATGAATTGGACGCCTCGAGTAAACAAATTTTCCTAATCTTTCTGTTCAAGCGCCATCTAC”, for which the binding signal was 0.889 RPM ratio (pull-down/input).
Consider “GATGATTGTTCTCCCAGCTGATGAATTCGTGCTGTCGAGTAAACAAATTTTCCTAATCTTTCTGTTCAAGCGCCATCTAC”, for which the binding signal is 1.17 RPM ratio (pull-down/input).
Turning to “GATGATTGTTCTCCCAGCTGATGAATTCCAATGCTCGAGTAAACAAATTTTCCTAATCTTTCTGTTCAAGCGCCATCTAC”, the binding signal is 0.9 RPM ratio (pull-down/input).
As for “GATGATTGTTCTCCCAGCTGATGAATTATCTGGGTCGAGTAAACAAATTTTCCTAATCTTTCTGTTCAAGCGCCATCTAC”, the figure is 0.882 RPM ratio (pull-down/input); as for “GATGATTGTTCTCCCAGCTGATGAATTTCGGGATTCGAGTAAACAAATTTTCCTAATCTTTCTGTTCAAGCGCCATCTAC”, 0.86 RPM ratio (pull-down/input).
As to “GATGATTGTTCTCCCAGCTGATGAATTTCAAGCTTCGAGTAAACAAATTTTCCTAATCTTTCTGTTCAAGCGCCATCTAC”, the binding signal is 0.801 RPM ratio (pull-down/input).
As for “GATGATTGTTCTCCCAGCTGATGAATTTACTCATTCGAGTAAACAAATTTTCCTAATCTTTCTGTTCAAGCGCCATCTAC”, the figure is 1.35 RPM ratio (pull-down/input); as for “GATGATTGTTCTCCCAGCTGATGAATTTGCATTCTCGAGTAAACAAATTTTCCTAATCTTTCTGTTCAAGCGCCATCTAC”, 1.49 RPM ratio (pull-down/input).
As for “GATGATTGTTCTCCCAGCTGATGAATTAGATATGTCGAGTAAACAAATTTTCCTAATCTTTCTGTTCAAGCGCCATCTAC”, the figure is 1.07 RPM ratio (pull-down/input); as for “GATGATTGTTCTCCCAGCTGATGAATTGTTCGCCTCGAGTAAACAAATTTTCCTAATCTTTCTGTTCAAGCGCCATCTAC”, 1.09 RPM ratio (pull-down/input); as for “GATGATTGTTCTCCCAGCTGATGAATTGCCGAGTTCGAGTAAACAAATTTTCCTAATCTTTCTGTTCAAGCGCCATCTAC”, 0.883 RPM ratio (pull-down/input).
In the case of “GATGATTGTTCTCCCAGCTGATGAATTAACCGTCTCGAGTAAACAAATTTTCCTAATCTTTCTGTTCAAGCGCCATCTAC”, the binding signal is 0.804 RPM ratio (pull-down/input).
On to “GATGATTGTTCTCCCAGCTGATGAATTGGTTGGATCGAGTAAACAAATTTTCCTAATCTTTCTGTTCAAGCGCCATCTAC”, for which the binding signal is 0.937 RPM ratio (pull-down/input).
The result for “GATGATTGTTCTCCCAGCTGATGAATTTTATGTTTCGAGTAAACAAATTTTCCTAATCTTTCTGTTCAAGCGCCATCTAC” reads 1.19 RPM ratio (pull-down/input); that for “GATGATTGTTCTCCCAGCTGATGAATTCCGTACATCGAGTAAACAAATTTTCCTAATCTTTCTGTTCAAGCGCCATCTAC”, 0.996 RPM ratio (pull-down/input); that for “GATGATTGTTCTCCCAGCTGATGAATTAGTGTCCTCGAGTAAACAAATTTTCCTAATCTTTCTGTTCAAGCGCCATCTAC”, 0.934 RPM ratio (pull-down/input).
As for “GATGATTGTTCTCCCAGCTGATGAATTAGTGAGCTCGAGTAAACAAATTTTCCTAATCTTTCTGTTCAAGCGCCATCTAC”, the figure is 0.775 RPM ratio (pull-down/input).
As to “GATGATTGTTCTCCCAGCTGATGAATTTGAGGCCTCGAGTAAACAAATTTTCCTAATCTTTCTGTTCAAGCGCCATCTAC”, the binding signal is 0.853 RPM ratio (pull-down/input).
“GATGATTGTTCTCCCAGCTGATGAATTACACGACTCGAGTAAACAAATTTTCCTAATCTTTCTGTTCAAGCGCCATCTAC”: the binding signal was 1.06 RPM ratio (pull-down/input).
Consider “GATGATTGTTCTCCCAGCTGATGAATTGAGGTGCTCGAGTAAACAAATTTTCCTAATCTTTCTGTTCAAGCGCCATCTAC”, for which the binding signal is 0.768 RPM ratio (pull-down/input).
The result for “GATGATTGTTCTCCCAGCTGATGAATTTTTCAAGTCGAGTAAACAAATTTTCCTAATCTTTCTGTTCAAGCGCCATCTAC” reads 0.818 RPM ratio (pull-down/input).
On to “GATGATTGTTCTCCCAGCTGATGAATTATTTATTTCGAGTAAACAAATTTTCCTAATCTTTCTGTTCAAGCGCCATCTAC”, for which the binding signal is 2.06 RPM ratio (pull-down/input).
Regarding “GATGATTGTTCTCCCAGCTGATGAATTACTCCCCTCGAGTAAACAAATTTTCCTAATCTTTCTGTTCAAGCGCCATCTAC”, the binding signal is 0.934 RPM ratio (pull-down/input).
The result for “GATGATTGTTCTCCCAGCTGATGAATTGCCGAAGTCGAGTAAACAAATTTTCCTAATCTTTCTGTTCAAGCGCCATCTAC” reads 0.908 RPM ratio (pull-down/input); that for “GATGATTGTTCTCCCAGCTGATGAATTACGCCGCTCGAGTAAACAAATTTTCCTAATCTTTCTGTTCAAGCGCCATCTAC”, 0.937 RPM ratio (pull-down/input); that for “GATGATTGTTCTCCCAGCTGATGAATTCCAAATGTCGAGTAAACAAATTTTCCTAATCTTTCTGTTCAAGCGCCATCTAC”, 0.855 RPM ratio (pull-down/input).
As for “GATGATTGTTCTCCCAGCTGATGAATTCGATTGATCGAGTAAACAAATTTTCCTAATCTTTCTGTTCAAGCGCCATCTAC”, the binding signal is 0.971 RPM ratio (pull-down/input).
“GATGATTGTTCTCCCAGCTGATGAATTGAAGAGTTCGAGTAAACAAATTTTCCTAATCTTTCTGTTCAAGCGCCATCTAC”: the binding signal is 0.73 RPM ratio (pull-down/input).
With “GATGATTGTTCTCCCAGCTGATGAATTTAACTTGTCGAGTAAACAAATTTTCCTAATCTTTCTGTTCAAGCGCCATCTAC”, the binding signal is 0.918 RPM ratio (pull-down/input).
For the sequence “GATGATTGTTCTCCCAGCTGATGAATTTCCTATTTCGAGTAAACAAATTTTCCTAATCTTTCTGTTCAAGCGCCATCTAC”, the binding signal was 0.887 RPM ratio (pull-down/input).
Regarding “GATGATTGTTCTCCCAGCTGATGAATTCCTCCCATCGAGTAAACAAATTTTCCTAATCTTTCTGTTCAAGCGCCATCTAC”, the binding signal was 0.868 RPM ratio (pull-down/input).
Turning to “GATGATTGTTCTCCCAGCTGATGAATTAGCGATGTCGAGTAAACAAATTTTCCTAATCTTTCTGTTCAAGCGCCATCTAC”, the binding signal is 0.951 RPM ratio (pull-down/input).
The result for “GATGATTGTTCTCCCAGCTGATGAATTACATAGATCGAGTAAACAAATTTTCCTAATCTTTCTGTTCAAGCGCCATCTAC” reads 1.19 RPM ratio (pull-down/input); that for “GATGATTGTTCTCCCAGCTGATGAATTAACTACATCGAGTAAACAAATTTTCCTAATCTTTCTGTTCAAGCGCCATCTAC”, 1.13 RPM ratio (pull-down/input); that for “GATGATTGTTCTCCCAGCTGATGAATTTGGACCCTCGAGTAAACAAATTTTCCTAATCTTTCTGTTCAAGCGCCATCTAC”, 0.822 RPM ratio (pull-down/input).
The result for “GATGATTGTTCTCCCAGCTGATGAATTAAGCACCTCGAGTAAACAAATTTTCCTAATCTTTCTGTTCAAGCGCCATCTAC” reads 0.918 RPM ratio (pull-down/input).
In the case of “GATGATTGTTCTCCCAGCTGATGAATTGTCTTGTTCGAGTAAACAAATTTTCCTAATCTTTCTGTTCAAGCGCCATCTAC”, the binding signal is 1.1 RPM ratio (pull-down/input).
As for “GATGATTGTTCTCCCAGCTGATGAATTCTGACAATCGAGTAAACAAATTTTCCTAATCTTTCTGTTCAAGCGCCATCTAC”, the figure is 1.01 RPM ratio (pull-down/input).
As to “GATGATTGTTCTCCCAGCTGATGAATTAATGATTTCGAGTAAACAAATTTTCCTAATCTTTCTGTTCAAGCGCCATCTAC”, the binding signal was 1.15 RPM ratio (pull-down/input).
“GATGATTGTTCTCCCAGCTGATGAATTGACGCACTCGAGTAAACAAATTTTCCTAATCTTTCTGTTCAAGCGCCATCTAC”: the binding signal was 1.17 RPM ratio (pull-down/input).
